The results in this text go back to the RNAGym collection of RNA variant scans (doi:10.7554/elife.90254).

The source gives no read counts; variants with many changes may rest on few reads.

The chains are these.
B1: LINE1-mini (parent)
chain: GGCAGAGCUCAACACAGCGUGGCAAAGUGGCUGUGGCUAGACUGCC

Variants of B1 are the subject of this data set. Kind of data set: self-cleavage, relative activity (ratio to wild type); higher = more cleavage; in vitro, sequencing; the parent is a self-cleaving ribozyme.
As for C8A U20G C23A A25C U28G C42U C45G C46G, the self-cleavage was found to be 0.02. For the variant C8A G44U C45A, the self-cleavage turned out to be 0.17. In the case of C8G C13G G30A U38G it was 0.24; in that of C8G C18U G29A G30A C42G, 0.02. In the case of C8G A24U G27C it was 0.09; in that of C8G C15U C45A C46U, 0.3.

As for C8G A24C U28G G35C C45A, the self-cleavage came out at 0. In the case of C8G C15A G30C G35A it was 0.34; in that of C8G A12U G36U A39C, 0.1; in that of C8G A26U U34G, 0.02.

As for C8A U32A C45A, the self-cleavage is 0.09. The same measure for C8G C13A G27U A39U: 0.1; for C8A U20G G29A U34C: 0.13; for C8G A16G G22A C23U C42U: 0.07. The same measure for C8G A26U C31U U43G C46A: 0.05; for C8G G17U G35A C42A: 0.1; for C8G C13U C15U G35C: 0.2. In the case of C8G A24U U43G it was 0.15; in that of C8G C23A G36C, 0.1. C8G G17C U32G: the self-cleavage was determined as 0.04. The same measure for C8A U9C G40U: 0.04; for C8G U9A A41C: 0.08.

With C8G G36C G40A, the self-cleavage was determined as 0.04. With C8G A12G G27U, the self-cleavage is 0.01. Regarding C8A G40U G44C, the self-cleavage turned out to be 0.19. In the case of C8G C10G C45A it was 0.02; in that of C8G G19U G29U G40C C46A, 0.09; in that of C8A U28C G29C U34A, 0.19. Consider C8G G21C G40C, for which the self-cleavage was determined as 0.07. In the case of C8A U9G C13A it was 0.27; in that of C8G G27U G44C C46U, 0.04; in that of C8G C13G G17A U32A C37A, 0.03.

As to C8A U9C U28G U32C U43A G44U, the self-cleavage was 0.02.

On to C8G A16U U38G, for which the self-cleavage was 0.01. Take C8G G21U G35C: the self-cleavage amounted to 0.04. The same measure for C8G A12G A16C C31U: 0; for C8A U20A U34A: 0.13. In the case of C8G C13G G35U it was 0.12; in that of C8G G17U C18U G35C, 0.02. In the case of C8A U9G U28G it was 0.03. Consider C8G A11U A14G C15U U32G, for which the self-cleavage amounted to 0.01. Regarding C8G C10U G17C G21A A24G, the self-cleavage was found to be 0.04. In the case of C8G A12U A25G it was 0.06; in that of C8A U9A G21A G44U, 0.68. The same measure for C8G G21U C31U: 0.22; for C8G G17U U43A C45G: 0.02. In the case of C8G C23A G40C, the self-cleavage stood at 0.13.

For the variant C8G C10G G17C C18U A25C U32C, the self-cleavage came to 0.01. The same measure for C8G A12U C13U G27C G35A A41U C46A: 0.01. The same measure for C8G C10G A12C U32G G36A: 0.01.

Take C8A U9A U32G: the self-cleavage worked out at 0.15.

Take C8G C10A C13A G21A A39U G44U: the self-cleavage worked out at 0. In the case of C8A U32C G44U it was 0.12; in that of C8G A14G A24G G40C, 0.02; in that of C8G C18A G19C, 0.06. In the case of C8G G17A U20G, the self-cleavage came to 0.04. Turning to C8G C13G A24U G29A, the self-cleavage is 0.15.

For C8G A16C A25C U34A C37A, the self-cleavage came out at 0.02. As for C8G C37G G40U U43G, the self-cleavage was determined as 0.04. The same measure for C8A U20G A25G U43G: 0.06; for C8G C10U C18G G19A: 0.04; for C8G G21C G29U G36A A39G: 0.01. In the case of C8G G17C A24C it was 0.02. The same measure for C8A U34G G36C: 0.04. Regarding C8G G29A G30U A39U, the self-cleavage was found to be 0.07. The same measure for C8G A16G G29U C37U U43C: 0.

As to C8G A26U C37U U38A, the self-cleavage was found to be 0.07. In the case of C8G C13U G40C C45G it was 0.05; in that of C8G G22U G27A G40U, 0.02.

In the case of C8A U32G U34G, the self-cleavage came to 0.13. In the case of C8G C13U A24G G27C G29C G36C it was 0.03.

In the case of C8G A11U A12U A14U G27U U32A, the self-cleavage was 0.01. For C8G C13A U20C G22C A25U A26G G27U A41C, the self-cleavage is 0.03. The same measure for C8G A14C G33U C37A G40A: 0.02; for C8G C13U A26C G30A: 0.06; for C8G G21U U32G G35A: 0.03. The same measure for C8G G21C G35A A39U: 0.04; for C8G G27U G36A: 0.07; for C8A U28C C45U: 0.27. In the case of C8G C10U C15G G30A it was 0.01.

Consider C8G G17C G21C, for which the self-cleavage turned out to be 0.05. In the case of C8G G17A G22C G36U it was 0.15; in that of C8G A11G C13U G30A, 0.02; in that of C8G C10A U34G, 0.01. As to C8G C13U G21C, the self-cleavage turned out to be 0.11. In the case of C8A U9G U43A it was 0.09; in that of C8G A14G A24U C31G, 0.08; in that of C8G C10A A16G U32C, 0.03. In the case of C8G A11U G21U it was 0.01; in that of C8G A14C G22U A26U, 0.04; in that of C8G A12U U28A C31U U34G, 0.02. In the case of C8G C18U G22U A26G G30C C42U it was 0.03; in that of C8G C23U U28G, 0.02; in that of C8A U9G G17A G27U G35U, 0.03.

With C8G C18G G22C U32C, the self-cleavage amounted to 0.02. In the case of C8G A16C G27A C37A C42A it was 0.01. For the variant C8G A12U A14C C31A, the self-cleavage is 0.01. The same measure for C8G G19U U28G G30U: 0.23. The same measure for C8G A26U C42U: 0.06; for C8A U9C A12U G17U A25U: 0.11.

Regarding C8G C13G C18U, the self-cleavage amounted to 0.03. The same measure for C8A U9C G44A: 0.04; for C8G G19C G21A G27U: 0.03.

In the case of C8G C10A A14C C15A A16G, the self-cleavage stood at 0. With C8G C13U A26C A39U, the self-cleavage amounted to 0.1. Consider C8G C15A G17U G33U, for which the self-cleavage is 0.02. Regarding C8G C13A G21C, the self-cleavage was 0.01. The same measure for C8A U20A G21A G22C U28C G29U C37A: 0.01.

Take C8G G27C G33U: the self-cleavage came out at 0.04.

In the case of C8G C15G A16U G19C, the self-cleavage was 0.01.

In the case of C8G C15G A25G, the self-cleavage stood at 0.02. The same measure for C8G G17A C31G G40A C46U: 0.01; for C8A U9G C18G: 0.06; for C8G C23U G27U G33A: 0.03. As for C8G C10A C31U G35U, the self-cleavage came to 0.01.

On to C8G C10U G22C, for which the self-cleavage came out at 0.03. The same measure for C8A U20G A24G C37U U38C: 0.04; for C8G C10G A26C: 0.03. The same measure for C8G G21A G35U: 0.02; for C8G G17C C46U: 0.02; for C8G C42G C46A: 0.03. The same measure for C8G G21U A25C U38C C45G: 0.07; for C8A U38G A41U: 0.22.

As for C8G G22A A24G C37U C42A, the self-cleavage was found to be 0.07. In the case of C8A U20G G22A U28A U38C it was 0.05. Consider C8G C10G G27A C42U G44C, for which the self-cleavage was 0.

Turning to C8G C15U A25C G33U G35U, the self-cleavage was 0.04. Regarding C8G A12U G29A, the self-cleavage was found to be 0.07. In the case of C8G A16C G35A it was 0.04; in that of C8G A16U G33U U43C, 0.02; in that of C8G A14U C15U C37U C46A, 0.03. In the case of C8A G40U C45G it was 0.07; in that of C8G G30U A39G C46U, 0.04. The same measure for C8A U9A C45A: 0.33. C8A U34A C37A C46A: the self-cleavage worked out at 0.05. The same measure for C8G C13U C42G: 0.04; for C8G A24G C37G: 0.05. The same measure for C8G G19A C37G G40C C45G: 0.01; for C8G A24G G36U: 0.11; for C8G G21U G40U A41C: 0.1. As for C8G A11C U32G, the self-cleavage stood at 0.01. In the case of C8G G22A C45U it was 0.07; in that of C8G C13U G19C C37G, 0.08; in that of C8A U9A A26U G29C, 0.03.

Turning to C8A U9G U28A G33A G44U, the self-cleavage was determined as 0.03. The same measure for C8G G17U G40U: 0.01. In the case of C8G G17U U20G it was 0.02.

In the case of C8G A25G G27A C37A, the self-cleavage worked out at 0.1. In the case of C8A U28A A39C C42G U43G it was 0.05; in that of C8G A11C A14U C37U, 0; in that of C8G A16G U28A, 0.06. In the case of C8G A14U U34A it was 0.07.

Turning to C8G C10U G22U A25C U32C, the self-cleavage came out at 0.03. In the case of C8A U28G G36C it was 0.23.

In the case of C8G G33U G36C, the self-cleavage is 0.16. As to C8G C13A G35A G44A, the self-cleavage came to 0.08. The same measure for C8G C23G A25G A26C G27U G30A G33C C46A: 0.01; for C8G C18G C23U C46U: 0.15; for C8G A12G C42A: 0.02. The same measure for C8A U9G G33U: 0.12; for C8A U9G A39G C45U: 0.04; for C8G C15A G35U: 0.04. The same measure for C8G C10G C15G A24C U43C: 0. For C8G G19C G35C, the self-cleavage was 0.03.

Regarding C8A U9A C15A A39U C42G, the self-cleavage was 0.16.

For C8G C10U C13A G36A, the self-cleavage was 0.08. In the case of C8G A16U G22U A26U C31A C37G C42U, the self-cleavage was 0.16.
